# Test results from PubChem BioAssay AID488969 (Vanderbilt High Throughput Screening Facility, 2010).
# In all, about 110,000 compounds were measured (“z-score”: median about -0.1, highest 2% from about 2 on). Some of the results follow.
# Target: Metabotropic glutamate receptor 8 (Rattus norvegicus) (UniProt P70579)
# Assay: rat mGluR8 modulators via GIRK flux, primary screen, cell-based, thallium flux, HTS (AID 488969)
# Details: HEK293 rat mGluR8, GIRK (G protein-gated inwardly rectifying potassium channel) thallium flux, FluoZin2; at 10 µM; stronger effect = higher value
# Chain of UniProt P70579 (P70579 whole entry, looked up): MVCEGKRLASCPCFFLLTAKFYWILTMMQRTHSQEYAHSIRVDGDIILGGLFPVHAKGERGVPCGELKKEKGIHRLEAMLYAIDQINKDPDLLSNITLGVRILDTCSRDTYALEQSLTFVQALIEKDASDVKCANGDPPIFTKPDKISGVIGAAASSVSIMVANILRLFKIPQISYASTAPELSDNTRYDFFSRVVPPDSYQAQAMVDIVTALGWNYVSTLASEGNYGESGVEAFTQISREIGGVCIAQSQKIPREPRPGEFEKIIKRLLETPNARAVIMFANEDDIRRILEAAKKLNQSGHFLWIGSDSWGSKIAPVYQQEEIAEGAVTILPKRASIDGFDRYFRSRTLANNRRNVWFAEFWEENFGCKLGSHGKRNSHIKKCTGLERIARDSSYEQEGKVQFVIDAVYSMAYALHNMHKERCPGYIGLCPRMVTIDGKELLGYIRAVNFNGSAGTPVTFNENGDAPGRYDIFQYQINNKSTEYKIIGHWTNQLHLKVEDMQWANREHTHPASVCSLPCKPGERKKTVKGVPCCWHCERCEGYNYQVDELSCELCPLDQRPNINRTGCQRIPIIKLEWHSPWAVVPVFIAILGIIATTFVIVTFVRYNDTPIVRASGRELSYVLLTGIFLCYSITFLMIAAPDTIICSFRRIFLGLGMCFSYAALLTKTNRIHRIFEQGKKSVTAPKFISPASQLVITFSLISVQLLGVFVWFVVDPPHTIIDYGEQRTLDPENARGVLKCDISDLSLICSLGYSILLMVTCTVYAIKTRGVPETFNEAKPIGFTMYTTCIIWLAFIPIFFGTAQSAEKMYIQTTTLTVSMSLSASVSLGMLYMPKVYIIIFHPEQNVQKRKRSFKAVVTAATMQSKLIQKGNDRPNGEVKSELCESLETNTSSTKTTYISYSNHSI
row,Structure (SMILES),z-score
1,CC1CN(CCc2ccccc2)CC(C)O1 (stereo unspecified),0.104
2,O=C1C2CCCN2C(c2ccc(Cl)c(Cl)c2)N1c1ccccn1 (stereo unspecified),-0.0899
3,CN(C)C(=O)Oc1cccc(OCc2n(C)c3ccccc3[n+]2C)c1,-0.202
4,NCCc1c[nH]c2ccc(F)cc12,0.208
5,Cc1ccccc1-n1c(O)c(C=Nc2ccc(N(C)C)cc2)c(=O)[nH]c1=O,-1.21
6,CC(=O)c1cccc(OCC(O)CN2CC=C(c3ccccc3)CC2)c1 (stereo unspecified),-0.649
7,Cc1ccc(/C=C2/C(=O)NC(=O)N(CCc3ccc(F)cc3)C2=O)s1,-0.392
8,c1ccc2c(c1)CNc1ccccc1O2,0.371
9,O=C(c1cccn2c(=O)c3cc(Cl)ccc3nc12)N1CCC2(CC1)OCCO2,-0.0541
10,C=CC1CN2CCC1CC2[C@@H](OC(=O)c1ccc(OC)cc1)c1ccnc2ccccc12 (stereo partly specified),-0.885
11,O=P(NS(=O)(=O)c1ccc(Cl)cc1)(Oc1ccccc1)Oc1ccccc1,0.386
12,NC(=O)C1(N2CCCCC2)CCN(Cc2ccccc2)CC1,0.711
13,CCOC(C(=O)OCC(O)CN(CC)CC)(c1ccccc1)c1ccccc1 (stereo unspecified),0.39
14,CC(c1ccc(F)cc1)n1cc(C(=O)NCc2ccc3c(c2)OCO3)nn1 (stereo unspecified),0.0962
15,Cc1cccc(-n2c(-c3ccc([N+](=O)[O-])cc3)nc3ccccc3c2=O)c1,-0.131
16,c1ccc(-c2[nH]c(-c3ccccc3)[n+](CC3CO3)c2-c2ccccc2)cc1 (stereo unspecified),-0.603
17,C#CCN1C(=O)C2(C(C#N)=C(N)OC(C)=C2C(=O)OCc2ccccc2)c2ccccc21 (stereo unspecified),-0.604
18,CN1CC=C2C(C#N)=C(N)C(C#N)(C#N)C(c3ccncc3)C2C1 (stereo unspecified),-0.434
19,NC(=O)c1c(NC(=O)c2ccc(S(=O)(=O)N(CCCl)CCCl)cc2)sc2c1CCCCC2,-0.204
20,CC1CN(C)C(C)(C)CC1(O)c1ccccc1 (stereo unspecified),0.254
21,O=c1c(C=NCc2cccs2)c(O)n(C2CCCCC2)c(=O)n1C1CCCCC1,-0.421
22,Cc1ccc(-n2c(C)cc(/C=C3\C(=O)NC(=O)N(C)C3=O)c2C)cc1C,-0.325
23,Clc1ccccc1Nc1ncnc(-n2cccc2)n1,-0.0163

row,Structure (SMILES),z-score
1,CCC12CN3CC(CC)(CN(C1)C3c1cccnc1)C2=O (stereo unspecified),-0.395
2,CN1c2ccc([N+](=O)[O-])cc2CC2(C(=O)NC(=O)N(c3ccccc3)C2=O)C1c1ccccc1 (stereo unspecified),-0.241
3,COc1ccc(-n2c(O)c(C(C)=NCc3ccco3)c(=O)[nH]c2=O)cc1,-0.0453
4,O=C(C1CCN(S(=O)(=O)c2ccccc2)CC1)N1CCC2(CC1)OCCO2,0.255
5,O=C(COC(=O)Cc1ccccc1)Nc1ncc(Cl)cc1Cl,-0.26
6,CCOC(=O)[C@@]12C(=O)C(=O)N[C@]1(c1ccccc1)C1OCCCC12 (stereo partly specified),-0.17
7,C=CCC1(CN2CCCC2=O)C(=O)NC(=O)NC1=O,-0.124
8,CCc1ccc(C(=O)C23CN4CN(CN(C4)C2)C3)cc1,0.149
9,COc1ccc(C(C)=O)cc1CC(C(=O)c1ccc(F)cc1)N(C)C (stereo unspecified),-0.169
10,Cc1ccc(CS(=O)(=O)CCC(=O)N2CCC3(CC2)OCCO3)cc1,-0.0811
11,O=C1Nc2ccccc2/C1=C/c1cnc[nH]1,-0.0242
12,COC(=O)C(C)Oc1cc(C)cc2oc(=O)c3c(c12)CCC3 (stereo unspecified),-2.81
13,Cc1cccnc1-n1c(CN2C(=O)c3ccccc3C2=O)nc2ccccc2c1=O,0.0987
14,COc1ccccc1CC1/C(=N/O)C2CCN1CC2 (stereo unspecified),-0.406
15,CN(C(=O)Oc1ccc([N+](=O)[O-])cc1)c1ccccc1,-0.159
16,CCN1CCN(C(=O)COc2ccc(S(=O)(=O)NC(C)C)cc2)CC1,-0.11
17,CC(=O)OC1C2CCCC1C(N1CCCC1)CC2 (stereo unspecified),-0.393
18,Cc1nc2ccccn2c1P(=S)(N1CCCCC1)N1CCCCC1,-0.368
19,Cc1cc(C)c(C(=O)CN2CCOCC2)c(C)c1,-0.0206
20,O=P(Nc1c(Cl)cccc1Cl)(c1ccccc1)c1nc2c(s1)CCCC2 (stereo unspecified),-0.554
21,CC(=NCc1ccc(F)cc1)c1c(O)n(C)c(=O)n(C)c1=O,0.397
22,C1=C(CCNCc2ccccc2)CCCC1,0.704
23,Cc1c(C(=O)N2CCC3(CC2)OCCO3)sc2ncnc(N(C)c3ccccc3)c12,-0.392

row,Structure (SMILES),z-score
1,c1ccc2[nH]c(CCNC3CCCCC3)nc2c1,-0.185
2,CCCNS(=O)(=O)c1ccc(OCC(=O)N2CCN(C)CC2)cc1,0.234
3,COC(=O)C(O)(c1ccc(N=Cc2ccccc2O)c(C)c1)C(F)(F)F (stereo unspecified),0.286
4,Cc1ccc(C(C)C)c(OCC(=O)N2CCN(Cc3nc4cc([N+](=O)[O-])ccc4n3C)CC2)c1,-0.713
5,CCOC(=O)c1c(C)n(CCN2CCN(C)CC2)c2ccc(OC)cc12,1.21
6,COc1ccc(Cl)cc1NC1=NCC(C)S1 (stereo unspecified),-0.0245
7,N#CCCn1cc(C(=O)Nc2ccccc2Br)c(-c2ccc([N+](=O)[O-])cc2)n1,0.412
8,CC(=O)N1CCC2(CC1)CC(=O)c1cc(OCC(=O)N3CCN(C)CC3)ccc1O2,0.0662
9,CCCCOC(=O)C1=C(N)OC2=C(C(=O)CCC2)[C@]12C(=O)Nc1ccccc12,0.112
10,CN1C2CCC1CC(OC(=O)c1ccc([N+](=O)[O-])cc1)C2 (stereo unspecified),0.093
11,CC1=NN(c2ccccc2)C(=O)C1/C=C1/C(=O)NC(=O)N(c2cc(C)cc(C)c2)C1=O (stereo unspecified),-0.266
12,O=C(CN1CCOCC1)NCC(=O)Nc1ccc(Br)cc1C(=O)c1ccccc1,0.00301
13,CCC(C)N1CCN(C(=O)Cc2ccccc2)CC1 (stereo unspecified),-0.234
14,CCOC(=O)C1CCN(/C=C2/C(=O)NC(=O)N(c3ccc(OCC)cc3)C2=O)CC1,0.14
15,CN(C)CC1CCCCC1OC(=O)c1ccc(Cl)c(Cl)c1 (stereo unspecified),0.316
16,CCC(=NCCCn1ccnc1)c1c(O)n(Cc2ccccc2)c(=O)[nH]c1=O,-0.14
17,O=C(c1cc(C(=O)NCc2ccc(Cl)cc2)c(=O)n(Cc2ccc(Cl)cc2)c1)c1cc(F)ccc1O,-0.165
18,CCOC(=O)C1CCCCC12C(C#N)=C(N)Oc1n[nH]c(C)c12 (stereo unspecified),0.608
19,O=C1C2CCCN2C(c2cccc(Cl)c2)N1c1ccccn1 (stereo unspecified),-0.498
20,COc1cccc(-n2c(O)c(C=NCc3ccc4c(c3)OCO4)c(=O)[nH]c2=O)c1,-0.566
21,CCCC[n+]1cc(/N=C(\[O-])OC)on1,-0.276
22,Cc1ccccc1Cc1c(C)nc2nc(SCC(=O)N3CCC4(CC3)OCCO4)nn2c1C,-0.419
23,Cc1cc(OC(=O)CCCNC(=O)OC(C)(C)C)c2c3c(c(=O)oc2c1)CCC3,-0.209

row,Structure (SMILES),z-score
1,Cc1cccc(OCC(=O)N2CCN(Cc3ccncc3)CC2)c1,-0.0785
2,CN1C(=O)NC(=O)[C@]2(Cc3ccccc3N3CCN(c4ccccc4)CC32)C1=O (stereo partly specified),-0.28
3,CN(C)c1ccc(N=Cc2c(O)n(CCC3=CCCCC3)c(=O)[nH]c2=O)cc1,0.0762
4,C(=NC12CN3CN(CN(C3)C1)C2)c1cccs1,-0.0859
5,NC(=O)CSc1nnc([C@@H](N)Cc2c[nH]c3ccccc23)o1,0.139
6,O=C1CCCN1C(=O)c1cncc(Br)c1,-0.123
7,O=C(c1cc(-c2ccc(Cl)cc2)n(-c2ccc(Cl)cc2Cl)n1)N1CCOCC1,-0.25
8,CC(C)OP(=O)(OC(C)C)C(O)c1ccccc1F (stereo unspecified),-0.358
9,CCC(C#N)(CC)P(=S)(c1ccccc1)c1ccccc1,-1.62
10,Cc1cccc(CNCCc2ccccc2)n1,-0.0722
11,COC(=O)c1ccc(NC(=O)CSc2nc3ccc(N4C(=O)C5C6C=CC(C6)C5C4=O)cc3s2)cc1 (stereo unspecified),-0.108
12,C=CCn1c(O)c(C(C)=NCCO)c(=O)[nH]c1=O,0.0269
13,CCc1nc2ccccc2c(=O)n1-c1ccc2ccccc2c1,-0.285
14,CC1=CC(=O)NP(=O)(Oc2ccc3ccccc3c2)N1 (stereo unspecified),-0.127
15,CNC(=O)Oc1ccc(-c2cn3cc(Cl)ccc3n2)cc1,-0.191
16,Cn1c(O)c(C=NCCCN2CCCC2=O)c(=O)n(C)c1=O,-0.541
17,COc1ccccc1CCNC1CCC(C)CC1 (stereo unspecified),-1.32
18,O=C1NCCN2CCCC12 (stereo unspecified),-0.377
19,Cc1ccc(/C=C2/C(=O)NC(=O)N(CCc3ccc(F)cc3)C2=O)o1,-0.444
20,CC(Cc1ccccc1)[n+]1cc(/N=C(\N)[O-])on1 (stereo unspecified),-0.00574
21,O=c1[nH]c(=O)n(CCc2ccccc2)c(O)c1C=NCCCn1ccnc1,-0.246
22,Cn1c(O)c(/C=N/c2ncccn2)c(=O)n(C)c1=O,-0.0134
23,Cc1ccc2cc(C=C(C#N)C#N)c(Cl)nc2c1,0.0567

row,Structure (SMILES),z-score
1,CCCCN1CCC(C#N)(Nc2ccccc2)CC1,0.214
2,Cn1c(O)c(C=Nc2ccccc2Sc2ccccc2)c(=O)n(C)c1=O,-0.17
3,Cc1ccc(C2C(S(C)(=O)=O)=C(O)C(=O)N2c2ccccc2)cc1 (stereo unspecified) (tested in a mixture with another compound),0.165
4,CC1CCN2c3nc4ccccn4c(=O)c3CC3(C(=O)N(C)C(=O)N(C)C3=O)C2C1 (stereo unspecified),0.0728
5,CN(C)P(=O)(CCl)Nc1ccccc1 (stereo unspecified),-0.0728
6,OC1(c2ccc(F)cc2)CC2CCC(C1)N2Cc1nnnn1C1CCCCC1 (stereo unspecified),-0.327
7,Cc1ccnc(-n2c(C)cc(/C=C3\C(=O)NC(=S)N(C)C3=O)c2C)c1,-0.4
8,Cc1cccc(-n2c(C)nc3ccccc3c2=O)n1,-0.303
9,CN1CCC(N(C)c2ncnc3ccc(Br)cc23)CC1,0.106
10,CC1CN=C(NCc2ccccc2)S1 (stereo unspecified),-0.0761
11,CC(C)(C)N(NC(=O)c1ccccc1)C(=O)c1ccccc1,-0.0873
12,Cc1ccc(OP(=O)(O)Oc2ccc(C)cc2)cc1,-0.0727
13,CN1CCN(c2ccc(S(C)(=O)=O)cc2[N+](=O)[O-])CC1,-0.129
14,O=c1cccc2n1CC1CC2CN(Cc2ccc3c(c2)OCO3)C1 (stereo unspecified),-0.105
15,O=C(CN1CCN(Cc2cccc(Cl)c2)C1=O)N1CCC2(CC1)OCCO2,0.000643
16,Cc1ccc(N2C(=O)NC(=O)/C(=C\c3cc(C)n(-c4sc5c(c4C#N)CCCC5)c3C)C2=O)cc1,-0.0416
17,Cc1cc(OCC(=O)O)c2c3c(c(=O)oc2c1)CCCC3,-0.721
18,CN(C)c1ccc2c(c1)N=C(c1ccco1)OP2(=S)N1CCOCC1 (stereo unspecified),-0.87
19,Cc1ccc(/C=C2\C(=O)NC(=S)N(c3ccccc3F)C2=O)s1,-0.129
